PubChem BioAssay AID1468 (National Center for Advancing Translational Sciences (NCATS), 2008)
Out of some 280,000 compounds screened, about 1,100 (0.39%) were called active. The inconclusive results got no clear call from the source; some entries with a clear call stand among them for comparison. Calls follow the shape of the dose curve; as a rule, active = well fitted inhibition curve with a large enough effect; inconclusive = small, poorly fitted or top-dose-only effect, or effect the other way; inactive = flat fitted curve, though single readings scatter. Where the call is inconclusive, the potency comes from a doubtful curve fit.

Target: Microtubule-associated protein tau (Homo sapiens) (UniProt P10636)
Chain of UniProt P10636 (P10636 whole entry, looked up): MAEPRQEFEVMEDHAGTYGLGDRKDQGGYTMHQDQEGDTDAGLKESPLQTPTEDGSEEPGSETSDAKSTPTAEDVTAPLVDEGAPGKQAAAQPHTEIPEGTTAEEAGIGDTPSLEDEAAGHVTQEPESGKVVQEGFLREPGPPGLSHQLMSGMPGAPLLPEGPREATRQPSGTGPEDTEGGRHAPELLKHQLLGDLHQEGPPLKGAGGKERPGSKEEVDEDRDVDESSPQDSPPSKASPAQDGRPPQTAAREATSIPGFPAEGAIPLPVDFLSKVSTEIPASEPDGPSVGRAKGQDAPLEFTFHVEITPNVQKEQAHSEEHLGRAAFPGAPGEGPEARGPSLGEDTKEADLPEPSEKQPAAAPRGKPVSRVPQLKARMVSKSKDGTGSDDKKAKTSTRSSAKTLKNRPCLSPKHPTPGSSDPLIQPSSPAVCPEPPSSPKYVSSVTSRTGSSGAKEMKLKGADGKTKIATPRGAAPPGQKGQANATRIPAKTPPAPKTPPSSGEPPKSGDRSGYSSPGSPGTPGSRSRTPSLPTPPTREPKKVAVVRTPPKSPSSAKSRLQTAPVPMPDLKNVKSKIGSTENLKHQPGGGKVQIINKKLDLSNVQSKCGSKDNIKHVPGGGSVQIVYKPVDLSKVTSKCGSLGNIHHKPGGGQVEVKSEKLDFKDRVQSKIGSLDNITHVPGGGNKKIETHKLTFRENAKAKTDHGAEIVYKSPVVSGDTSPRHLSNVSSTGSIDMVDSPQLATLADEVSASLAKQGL
Assay: qHTS for Inhibitors of Tau Fibril Formation, Fluorescence Polarization; also: nearly all actives have a fitted effect of over 55% in size
Conditions: K18 P301L tau heparin fibrillization, Alexa594 FP, 6 h; series mostly up to 57.7 µM; activity, negative = inhibition: at the top concentration
In short: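 Read-out: fluorescence polarization of Alexa 594-labeled tau (0.24 uM), 555 nm excitation, 632 nm emission. Mixtures held 15 uM unlabeled K18 P301L, compound and 20 uM heparin, pH 7 acetate buffer, incubated 6 hr at 37 C.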
% is scaled to controls: 0 for no effect and ±100 for the full control effect; potency is read from the fitted curve at half-maximal effect; tags tell the direction and shape of the fitted curve.

Potency, active:
CN(C(=S)Nc1cccnc1)c1ccc(O)cc1 3.16 µM, Oc1c(C=Nc2cccc3nsnc23)ccc2ccccc12 3.98 µM, CCCN(CCC)S(=O)(=O)c1ccc(C(=O)Nc2cccc(-c3nc4ccccc4[nH]3)c2)cc1 25.1 µM

Potency, inconclusive:
Cc1cccc(NC(=O)c2ccc(-c3ccccc3)s2)c1 15.8 µM [inhibitor, partial curve, poor fit], CCOC(=O)c1ccc(NC(=O)c2nc[nH]c2C(=O)N2CCc3ccccc3C2)cc1 28.2 µM [inhibitor, partial curve], CN(C)c1ccc(C2CC(c3cccc(NS(C)(=O)=O)c3)=NN2C(=O)c2ccccc2)cc1 (stereo unspecified) 0.501 µM [activator, full curve, poor fit], COc1ccccc1Nc1nc(-c2ccccc2F)nc2ccccc12 39.8 µM [inhibitor, partial curve, poor fit], Cc1cccc(Cn2c(=O)n3nc(-c4ccccc4)nc3c3ccccc32)c1 35.5 µM [inhibitor, single point], Cc1cc2c(NC(=O)Nc3ccccc3)cccc2nn1 39.8 µM [inhibitor, single point], O=C(CSc1nnc(-c2ccco2)n1Cc1ccco1)NCc1cccs1 8.91 µM [inhibitor, single point], CCOC(=O)/C(C)=N/Nc1nc(-c2ccc(NC(C)=O)cc2)cs1 35.5 µM [activator, single point], NC(=O)c1cc[n+](CC2=C(C(=O)O)N3C(=O)[C@@H](NC(=O)[C@@H](c4ccccc4)S(=O)(=O)[O-])[C@H]3SC2)cc1 0.158 µM [inhibitor, full curve, poor fit], O=c1oc2cc(OCc3nn[nH]n3)ccc2c2c1CCCC2 39.8 µM [inhibitor, single point], CCN1C(=O)C(CC(=O)Nc2ccc(OC)cc2)N(CCc2ccccc2F)C1=S (stereo unspecified) 0.891 µM [inhibitor, single point], Cc1cc(C)c2c(CC(=O)Nc3ccc(S(=O)(=O)N4CCCCC4)cc3)coc2c1 15.8 µM [inhibitor, partial curve], O=C(c1ccc(CNS(=O)(=O)c2ccc(Br)cc2)cc1)N1CCCC1 0.398 µM [inhibitor, full curve, poor fit], S=C(NCc1cccnc1)Nc1ccc(Oc2ccc(Cl)cc2)cc1 35.5 µM [inhibitor, single point], COc1cccc(C2SCC(=O)N2c2ccc(Cl)cc2)c1OC (stereo unspecified) 20 µM [activator, partial curve, poor fit], N/C(Cc1ccc(Cl)cc1Cl)=N\OC(=O)c1ccc(Br)o1 1.78 µM [inhibitor, full curve, poor fit], Nc1c(C(=O)Nc2ccc(S(=O)(=O)N3CCCC3)cc2)sc2nc3cc4c(cc3cc12)CCC4 17.8 µM [activator, single point], COc1ccc(NC(=O)Cn2ncc(Cl)c(Cl)c2=O)cc1S(=O)(=O)N1CCOCC1 39.8 µM [inhibitor, single point], Nc1c(-c2nc(-c3ccccc3)no2)nnn1CC(=O)Nc1cccc(F)c1 39.8 µM [inhibitor, single point], CS(=O)(=O)n1nc(-c2ccc(Cl)cc2)nc1SCc1ccccc1 12.6 µM [inhibitor, partial curve], COc1cccc(NS(=O)(=O)c2ccc3[nH]cc(C(=O)NCCC(C)C)c(=O)c3c2)c1 15.8 µM [inhibitor, partial curve], CCOc1cc(C(=O)Nc2ccc(-c3nc4ccccc4s3)cc2Cl)cc(OCC)c1OCC 1.41 µM [inhibitor, full curve, poor fit], CC(SC#N)C(=O)C12CC3CC(CC(C3)C1)C2 (stereo unspecified) 14.1 µM [inhibitor, partial curve, poor fit], O=C(Nc1ccc(N2CCOCC2)c2nonc12)C1CCCC1 14.1 µM [activator, single point], NC(=O)CC(NC(=O)Cc1ccc(Br)cc1)c1ccc(NCCc2ccccc2F)c([N+](=O)[O-])c1 (stereo unspecified) 11.2 µM [inhibitor, partial curve, poor fit], CCN1C(=O)C(CC(=O)Nc2ccc(OC)cc2)N(CCc2ccc(OC)cc2)C1=S (stereo unspecified) 11.2 µM [inhibitor, partial curve, poor fit], Cc1c(Br)c(C(F)(F)F)nn1CC(=O)NCc1ccccc1 6.31 µM [activator, partial curve], COc1ccc(C(=O)Nc2cc3c(cc2N2CCCC2)n(C)c(=O)c(=O)n3C)cc1OC 39.8 µM [inhibitor, single point], Cn1c(O)c(N=NC(=O)c2cc(-c3cccs3)nc3ccccc23)c2ccccc21 44.7 µM [inhibitor, single point], CCOC(=O)c1ccc(NC(=O)NCc2ccccc2)cc1 39.8 µM [inhibitor, single point], O=C(Nc1nc2c(s1)CN(Cc1ccccc1)CC2)c1c(F)cccc1F 28.2 µM [inhibitor, single point], Cc1ccc(NNS(=O)(=O)c2ccc(C)cc2)cc1 25.1 µM [inhibitor, partial curve], Cc1ccc(NC(=O)CSc2nc(NS(=O)(=O)c3ccc(C)cc3)cc(=O)[nH]2)cc1 20 µM [inhibitor, partial curve], Cc1cc(C)cc(NC(=O)Cn2c(=O)n(Cc3ccco3)c(=O)c3oc4ccccc4c32)c1 15.8 µM [inhibitor, partial curve], Oc1ccc(C2Nc3cccc4cccc(c34)N2)c(O)c1 39.8 µM [inhibitor, single point], CCCOc1ccc(C(CC(=O)O)NC(=O)c2sc3ccccc3c2Cl)cc1 (stereo unspecified) 8.91 µM [activator, single point], O=C(/C=C/c1cn(-c2ccccc2)nc1-c1ccc2c(c1)OCCO2)NCCCN1CCOCC1 20 µM [inhibitor, single point], COc1cccc(NC(=O)c2oc3ccccc3c2NC(=O)c2cc3ccccc3o2)c1 17.8 µM [inhibitor, partial curve], COc1ccc(-c2nnc3ccc(SCC(=O)Nc4nc5ccc(C)cc5s4)nn23)cc1OC 22.4 µM [inhibitor, partial curve], Cc1cccc(C(=O)Nc2ccc(S(=O)(=O)N(Cc3ccccc3)c3ccccc3)cc2)c1 14.1 µM [inhibitor, partial curve], CC1CCc2cc(F)ccc2N1C(=O)CSc1nnc2c(n1)[nH]c1ccc(F)cc12 (stereo unspecified) 28.2 µM [inhibitor, partial curve], COc1ccc(C(Cl)=C(c2ccc(OC)cc2)c2ccc(OC)cc2)cc1 5.62 µM [inhibitor, single point], Cc1ccc(-c2nn(-c3ccccc3)cc2/C=N/n2c(-c3cccs3)n[nH]c2=S)cc1 20 µM [inhibitor, single point], CCOC(=O)c1c(N)sc2c1CCN(Cc1ccccc1)C2 10 µM [inhibitor, partial curve], COc1ccc(NC(=O)C(=S)NC2CCCCC2)cc1 8.91 µM [inhibitor, single point]

activity, negative = inhibition, inactive:
CCC(Oc1ccccc1)C(=O)Nc1nnc(S(=O)(=O)N(CC)CC)s1 (stereo unspecified) 6.2%, CCOC(=O)NC(=O)COC(=O)c1ccc(Sc2ncn[nH]2)c([N+](=O)[O-])c1 -0.234%, CCCC(=O)NNC(=O)CC(=O)Nc1ccccc1C(=O)O -9.59%, CCOc1ccc(S(=O)(=O)NCCc2csc3nc(-c4ccc(F)cc4)nn23)cc1 -14.4%, Cn1c(N)c(C(=O)COC(=O)c2ccc(Cl)nc2)c(=O)n(C)c1=O 4.86%, CN(Cc1c(C(=O)N(C)Cc2ccccc2)nc2ccccn12)CC1Cc2ccccc2O1 (stereo unspecified) -3.27%, COc1ccc(C(=O)Nc2cc(S(=O)(=O)c3ccc(Cl)cc3)c(O)c(C)c2C)cc1 -9.95%, CC(C)(C)c1ccc(C(=O)NCC(c2cccs2)S(=O)(=O)c2cccs2)cc1 (stereo unspecified) -1.24%, Cc1ccc(CNC(=O)c2c(C)oc3nc(C)nc(N4CCOCC4)c23)cc1 -10.3%, CC(C)(C)OC(=O)N1CCC(c2c(C(=O)NCc3ccco3)cnn2-c2ccccc2Cl)CC1 -7.22%, COCCCNC(=O)CSc1nc(-c2ccc(OC)c(OC)c2)[nH]c1-c1ccc(F)cc1 15.8%, Cc1ccc(C)c(OC(=O)c2cncc(Br)c2)c1 -1.47%, Cc1cccc(NC(=O)C2CCCN(S(=O)(=O)c3ccc(Br)s3)C2)c1 (stereo unspecified) -19.6%, Cc1ccccc1-n1c(Cn2c(=O)sc3ccccc32)nnc1SCC(=O)Nc1nccs1 6.48%, COC(=O)c1cc(S(=O)(=O)N2CCOCC2)ccc1Sc1ccccc1N -1.25%, Cc1nnc(NC(=O)C2CCN(S(=O)(=O)c3ccc(Cl)cc3)CC2)s1 4.02%, Cc1ccc(-c2n[nH]c(=S)n2/N=C/c2c(C)nn(-c3ccccc3)c2C)cc1 2.35%, c1ccc(N2CCN(CCc3nnc4n3CCCCC4)CC2)cc1 2.14%
